Assay results from PubChem BioAssay AID1346428 (National Center for Advancing Translational Sciences (NCATS), 2018).
The whole screen tested about 48,000 compounds, of which about 1,200 (2.5%) were called active. About 2% were inconclusive and are not listed.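 The calls were made as follows: active = activation of at least 60% and not above a set upper limit (about 1 call in 100 departs from these limits); inconclusive = activation of 40% to 60%, or above that upper limit; inactive = activation under 40%.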 This is one part of the list.

target: Probable G-protein coupled receptor 32 (Homo sapiens) (UniProt O75388); experiment: qHTS for Agonists of Human Resolvin D1 Receptor DRV1; conditions: CHO-K1 GPR32 beta-arrestin PathHunter luminescence, 90 min; at 76.9 µM; hits give high values; zero percent set by DMSO-only wells; also: 0% is about no effect
In short: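 Readings come from a cell-based beta-arrestin complementation format: CHO-K1 GPR32 stable cells (2,500/well) treated 90 min with compounds, then beta-Gal substrate added for 1 h before chemiluminescence imaging.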

Sequence of UniProt O75388 (O75388 whole entry, looked up): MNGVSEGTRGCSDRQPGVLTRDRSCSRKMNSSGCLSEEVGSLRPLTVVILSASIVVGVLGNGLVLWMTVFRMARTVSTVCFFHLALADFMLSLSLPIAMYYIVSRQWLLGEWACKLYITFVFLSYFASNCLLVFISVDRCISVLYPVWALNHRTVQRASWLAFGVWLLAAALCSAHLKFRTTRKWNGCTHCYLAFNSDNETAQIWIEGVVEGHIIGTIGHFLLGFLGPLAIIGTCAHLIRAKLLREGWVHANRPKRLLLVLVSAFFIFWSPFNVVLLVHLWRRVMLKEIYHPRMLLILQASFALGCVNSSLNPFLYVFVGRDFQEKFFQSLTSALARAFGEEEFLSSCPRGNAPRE

| SMILES | activation |
| --- | --- |
| Cc1cc(C)c2oc(C(=O)Nc3ccc(S(=O)(=O)N4CCCCCC4)cc3)cc(=O)c2c1 | inactive: -9.3% |
| O=C(Nc1ccc(F)cc1C(F)(F)F)C1CCN(c2ncccn2)CC1 | inactive: -0.249% |
| COc1ccc(S(=O)(=O)c2cn(C)c3ccc(C)cc3c2=O)cc1 | inactive: 6.94% |
| Cc1cccc(NC(=O)COC(=O)CCCC2=NS(=O)(=O)c3ccccc3N2)c1 | inactive: 13.1% |
| O=C(Nc1ccc(S(=O)(=O)N2CCCCC2c2cccnc2)cc1)c1ccc(Br)cc1 (stereo not drawn) | inactive: 20.2% |
| CCC1CN(C(=O)N2CCC(C(=O)NCc3cccc(OC)c3OC)CC2)c2cc(C)ccc2O1 (stereo not drawn) | inactive: -9.96% |
| CCC1=Nc2cc(C(=O)NC3CCC(C)CC3)ccc2Sc2ccc(C)cc21 (stereo not drawn) | inactive: -8.14% |
| CCOc1ccc(OCC)c(Nc2ccc3cc(S(=O)(=O)N4CCCC4)ccc3n2)c1 | inactive: -16.6% |
| CCC(C)NC(=O)CSc1nc2n[nH]c(C)c2c(=N)n1-c1cc(Cl)ccc1C (stereo not drawn) | inactive: 2.02% |
| O=C(C1CCCN(S(=O)(=O)c2cccc3nsnc23)C1)N1CCN(c2ccccc2F)CC1 (stereo not drawn) | inactive: 0.426% |
| COc1ccccc1NC(=O)c1sc2nc(C)c(C(=O)Nc3ccc(C)cc3C)c(-c3ccco3)c2c1N | inactive: -24.2% |
| CC(C)c1ccc(NC(=O)c2ccc(F)c(S(=O)(=O)N3CCc4ccccc43)c2)cc1 | inactive: 9.66% |
| COc1ccccc1CNC(=O)c1cc2sccc2n1Cc1ccc(Cl)cc1 | inactive: 0.31% |
| COc1cccc(-c2noc(C3CC(=O)N(c4ccc(F)cc4)C3)n2)c1OC (stereo not drawn) | inactive: 25.8% |
| Cc1ccc(NC(=O)c2ccc3[nH]c(C)cc(=O)c3c2)cc1 | inactive: 7.33% |
| CSc1cccc(NC(=O)c2cccc(N3CCCS3(=O)=O)c2)c1 | inactive: 9.73% |
| Cc1ccccc1NC(=O)CSc1nc2ccc(NC(=O)c3cccs3)cc2s1 | inactive: 10.2% |
| CCc1ccc(NC(=O)CCn2c(=O)c3cccn3c3ccccc32)cc1 | inactive: -15.5% |
| COc1ccc(NC(=O)CSc2ccc3nc(-c4ccccc4)cn3n2)c(OC)c1 | inactive: -21.5% |
| Cc1ccc(-n2nc(CO)c(C(=O)NC(C)CCCc3ccccc3)n2)cc1 (stereo not drawn) | inactive: -0.797% |
| CC(C)CC(NS(=O)(=O)c1ccc2c(c1)oc(=O)n2C)C(=O)NCc1ccccc1Cl (stereo not drawn) | inactive: -5.84% |

| SMILES | activation |
| --- | --- |
| CCCn1c(=O)sc2cc(NC(=O)c3ccc(OC)c(Br)c3)ccc21 | inactive: 8.82% |
| CCCOc1ccc(CN(C(=O)Cc2coc3ccc(CC)cc23)C2CCS(=O)(=O)C2)cc1 (stereo not drawn) | inactive: -31.5% |
| CCc1nn2c(=O)cc(COC(=O)CNC(=O)COc3ccc(C)cc3)nc2s1 | inactive: 0% |
| COc1ccc(NC(=O)c2c(NCc3sccc3C)sc3c2CCCC3)c(OC)c1 | inactive: -4.92% |
| CCC(=O)N1CCc2cc(S(=O)(=O)CCC(=O)N3CCN(c4ccc(Cl)cc4)CC3)ccc21 | inactive: 24.5% |
| Cc1ccc(NC(=O)CN2CCN(S(=O)(=O)c3ccc(C(C)C)cc3)CC2)cc1F | inactive: 25.9% |
| Cc1cn(C)c(CC(=O)N2CCN(c3cccc(Cl)c3)CC2)c1C(=O)O | inactive: -1.13% |
| COc1ccc(Nc2nc(N)nc(N)c2S(=O)(=O)c2ccccc2)cc1 | inactive: 35.5% |
| Nc1nc2c(ncn2CCC(CO)CO)c(=O)[nH]1 | inactive: -17.6% |
| CCCN(CCC)C(=O)Cn1c(=O)n(-c2ccc(CC)cc2)c(=O)c2ccc(C(=O)NCCc3ccccc3)cc21 | inactive: -6.2% |
| CCOC(=O)c1ccc(Nc2nc3ccc(C(=O)c4ccccc4)cc3n3c(C)nnc23)cc1 | inactive: -10.2% |
| O=c1c2ccccc2n(Cc2ccccc2Cl)c(=O)n1CCc1ccccc1 | inactive: -4.22% |
| Cc1cccc(NC(=O)c2ccc3nc(C(C)C)oc3c2)c1C | inactive: -11% |
| COc1cccc(NC(=O)CSC2=Nc3ccccc3C3=NC(CCC(=O)NCCc4ccccc4)C(=O)N23)c1 (stereo not drawn) | inactive: -8.75% |
| Cc1ccc(-n2cc(C(=O)Oc3cccc(C)c3)c3ccccc3c2=O)cc1 | inactive: -1.71% |
| CCCCCOc1ccc(Cn2c(=O)oc3ccccc32)cc1 | inactive: 11.5% |
| COc1cc(Cl)c(NC(=O)CCS(=O)(=O)c2ccc3c(c2)NC(=O)CO3)c(OC)c1 | inactive: -18.4% |
| COc1ccc(-c2cc(C(=O)NCCc3ccccc3)c3c(-c4ccccc4)[nH]nc3n2)cc1OC | inactive: -11.4% |
| Cc1ccc(NC(=O)C2CCCN(S(=O)(=O)c3ccc4c(c3)oc(=O)n4C)C2)cc1Cl (stereo not drawn) | inactive: -0.0375% |
| CCOc1ccc(NC(=O)C(=O)c2cc(C)n(-c3cc(C)cc(C)c3)c2C)cc1 | inactive: -2.17% |
| CC(C)(C)OC(=O)N1CCC(c2c(C(=O)NC3CCN(Cc4ccccc4)CC3)cnn2-c2ccc(F)cc2F)CC1 | inactive: -13.9% |

| SMILES | activation |
| --- | --- |
| COc1ccc(CCNC(=O)c2ccc3c(c2)CCN3S(=O)(=O)c2ccc(C)cc2)cc1 | inactive: 0.898% |
| CCCOc1ccc(C(=O)OCCN(CC)CC)cc1N | inactive: -4.47% |
| Cc1ccc(Nc2c(-c3ccc(N(C)C)cc3)nc3nc[nH]n23)cc1 | inactive: -33.5% |
| COCCCn1c(=N)c(C(=O)NCC2CCCO2)cc2c(=O)n3cc(C)ccc3nc21 (stereo not drawn) | inactive: -8.5% |
| CC(=O)OCC(=O)[C@H]1CC[C@H]2[C@@H]3CCC4=CC(=O)CC[C@]4(C)[C@H]3CC[C@]12C | inactive: -29% |
| CC(=O)c1ccc(S(=O)(=O)Nc2ccc(-c3ccc(N4CCCCCC4)nn3)cc2)cc1 | inactive: -15.3% |
| Cc1ccc2c(=O)cc(C(=O)Nc3ccc(S(=O)(=O)N4CCC(C)CC4)cc3)oc2c1C | inactive: -7.27% |
| COc1cccc(-c2nn3c(=O)cc(CN4CCN(S(=O)(=O)c5ccc(C)cc5)CC4)nc3s2)c1 | inactive: -5.37% |
| Cc1ccc(CSc2nnc(-n3c(=O)c(C#N)cc4c(=O)n5cccc(C)c5nc43)s2)cc1 | inactive: 20.1% |
| COc1cc(C2CC(=O)Nc3c2c(C)nn3-c2nc(C)cc(C)n2)cc(OC)c1O (stereo not drawn) | inactive: -6.05% |
| O=C(Cc1ccccc1)Nc1sc2c(c1C(=O)Nc1ccccc1)CCCCC2 | inactive: -19.6% |
| COc1ccc(-c2nc3ccccc3n3c(-c4cccc(C)c4)c4c(=O)n(C)c(=O)n(C)c4c23)cc1 | inactive: -6.27% |
| CSc1nc(=O)c2c(n1C)NC(=O)CC2c1ccccc1OC(C)C (stereo not drawn) | inactive: -6.08% |
| Cc1nn(Cc2ccc(Cl)c(Cl)c2)c(C)c1NC(=O)c1noc2c1CCc1ccccc1-2 | inactive: 33.7% |
| O=C(CC1(O)C(=O)N(CCc2ccccc2)c2ccc(Br)cc21)c1ccc(F)cc1 (stereo not drawn) | inactive: -10.5% |
| CCc1ccc2c(c1)c(=O)c(S(=O)(=O)c1ccc(Cl)cc1)cn2CC | inactive: -9.1% |
| CCOc1ccc(CCNC(=O)CCCn2c(=O)c3cccn3c3cccnc32)cc1OCC | inactive: -19.5% |
| CSc1ccc(CNC(=O)C2CCCN(S(=O)(=O)N(C)c3ccc(F)cc3)C2)cc1 (stereo not drawn) | inactive: -9.18% |
| COc1cccc(-c2cn3c(n2)sc2cc(C(=O)NCCCc4ccccc4)ccc23)c1 | inactive: -11.7% |
| COC(=O)CC1Oc2ccccc2-n2cc(-c3ccc(C)cc3)nc21 (stereo not drawn) | inactive: 1.5% |
| COc1cccc(CNCCSc2nnnn2C)c1OCc1ccccc1 | inactive: 21.3% |

| SMILES | activation |
| --- | --- |
| Nc1c(C(=O)NCc2ccc(Cl)cc2Cl)nnn1Cc1ccc(Br)cc1 | inactive: -6% |
| CCc1ccc(CNC(=O)c2cc3cc(S(=O)(=O)N4CCCCC4)ccc3n2C)cc1 | inactive: -6.4% |
| CCCn1ccc2c(OCC(=O)Nc3cc(C)ccc3C)cccc2c1=O | inactive: 34.2% |
| Cc1ccc(S(=O)(=O)NCC2CCC(C(=O)NCc3ccc(F)cc3)CC2)cc1 (stereo not drawn) | inactive: -4.76% |
| COc1ccc(OCC(=O)Nc2cc(-c3ccccc3F)nn2-c2ccccc2)cc1 | active: 90.7% |
| COC(=O)c1ccc(NC(=O)CSc2nc(C)cc(C)c2C(=O)Nc2ccccc2)cc1 | inactive: -18.1% |
| Cc1nc(-c2ccc(S(=O)(=O)Nc3ccc(C#N)cc3)cc2)co1 | inactive: -2.05% |
| COc1cc(NS(=O)(=O)c2cnc(N)nc2)cc(OC)c1 | inactive: -12.7% |
| CCOc1ccc(/C=C/C(=O)Nc2sc3c(c2C(=O)OC)C(C(=O)OC)CC3)cc1 (stereo not drawn) | inactive: -5.63% |
| CCOC(=O)c1cc(C)n(CC2CCC(C(=O)Nc3ccc(C(C)=O)cc3)CC2)c1C (stereo not drawn) | inactive: -20.7% |
| COc1cc(C(=O)OCc2cc(=O)n3nc(C4CCCCC4)sc3n2)cc(OC)c1OC | inactive: -0.49% |
| CCn1nnc2cc(C(=O)Nc3ccc(Cl)cc3C)ccc21 | inactive: -0.0431% |
| CCc1cccc(-n2c(=O)c3cccnc3n2CC(=O)NCc2ccccc2)c1 | inactive: -27.6% |
| O=C(NCCC1=CCCCC1)c1ccc2c(c1)N(Cc1ccccc1F)C(=O)c1ccccc1S2=O (stereo not drawn) | inactive: -12.6% |
| CCCNS(=O)(=O)c1ccc2nc(NC(=O)c3ccc(F)cc3)sc2c1 | inactive: -19.1% |
| Cc1ccc2nc(N3CCN(c4ccccc4)CC3)c3nnnn3c2c1 | inactive: -1.86% |
| CCc1cccc(NC(=O)c2cn3c4c(ccc(Cl)c4c2=O)OC(C)C3)c1 (stereo not drawn) | inactive: 5.61% |
| COc1cc2cc(CNc3ccccc3)c(=O)n(CC(=O)Nc3ccccc3)c2cc1OC | inactive: -58.5% |
| C#CCn1c(=O)c2c(ncn2C)n(C)c1=O | inactive: -1.53% |
| COc1ccc(N2CCN(C(=O)c3cccc(-n4c(C)nc5cccnc54)c3)CC2)cc1 | inactive: 27.9% |
